Read counts are not given, so values of variants with three or more changes are uncertain.
B1: CPEB3 Ribozyme (parent)
chain: UAACAGGGGGCCACAGCAGAAGCGUUCACGUCGCAGCCCCUGUCAGAUUCUGGUGAAUCUGCGAAUUCUGCUGUAUAUCUC

Variants of: B1
Assay: self-cleavage, relative activity (ratio to wild type); higher = more cleavage; in vitro, sequencing
In short: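 For each CPEB3 ribozyme variant, relative activity is its cleaved/total read fraction divided by the unmutated ribozyme's. Barcoded error-prone PCR libraries were transcribed by T7 RNA polymerase (5 hours, 37°C) and held in DNase I for 15 min before an EDTA stop, with cleavage occurring throughout. Template-switching reverse transcription and Illumina sequencing were used to read the RNAs. A 5-read minimum applied, and results are the mean of three batches.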

| Variant | self-cleavage |
| --- | --- |
| UAACAGGGGGCCACAGCAGAGGCGUUCACGCCGCAGCCCCUGUCAGAUUCUGGUGAAUCUGCGAAUUCUGCUGUUUAUCAC | 0.45 |
| UAACAGGGGGCCACAGCAGAGGCGUUCACGCCGCAGCCCCUGUCAGAUUCUGGUGAAUCUGCGAAUUCUGCUGUAUGCCUC | 0.16 |
| UAACAGGGGGCCACAGCAGAGGCGUUCACGCCGCAGCACCUGCCUGAUUCUGGUGAAUCUGCGAAUUCUGCUGUAUAUCUC | 0.07 |
| UAACAGGGGGCCACAGCAGAGGCGUUCACGCCGCAGCUCCUGUCAGAUUCAGGUGAAUCUGCGAAUUCUGCUGUAUAUCUC | 0.1 |
| UAACAGGGGGCCACAGCAGAGGCGUUCACGCCGCAGCCCUUGUCAGAUACUGGUGAGUCUGCGAAAUCUGCUGUAUAUCUC | 0.15 |
| UAACAGGGGGCCACAGCAGAGGCGUUCACGCCGCAGCCCUUGUCAGAUUCUGGUGAAUCCGCGAAUUCUGCUGUAUACCCC | 0.07 |
| UAACAGGGGGCCACAGCAGAGGCGUUCACGCCGCAGCCCCUGUCAGAUUCUGGUGAAUCUGCGAAUUGUGCUGUAUAUCUC | 0.08 |
| UAACAGGGGGCCACAGCAGAGGCGUUCACGCCGCAGCCCCAGUCAGUUUCUGGUGAAACUGCGAAUUCUGCUGUAUAUCUC | 0.06 |
| UAACAGGGGGCCACAGCAGAGGCGUUCACGCCGCAGCCCCAGUGGGAUUCUGGUGAAUCUGCGAAUUCUGCUGUAUAUCUC | 0.05 |
| UAACAGGGGGCCACAGCAGAGGCGUUCACGCCGCAGCCCCAGUCAGAUUCUGGCGAACCUGCGAAUUCCGCUGUAUAUCUC | 0 |
| UAACAGGGGGCCACAGCAGAGGCGUUCACGCCGCAGCCCCUGCCAGAUUCUGGUGAAUCUGCGUAUUGUGCUGUAUAUCUC | 0.06 |
| UAACAGGGGGCCACAGCAGAGGCGUUCACGCCGCAGCCCCUGUCAGAUGCUGGUGGAUCUGCGAAUUCUGCUGUUUAUCUC | 0.07 |
| UAACAGGGGGCCACAGCAGAGGCGUUCACGCCGCAGCCCCUGUCAGAUUCCGGUGAAUCUGCGAAUUCUGCUGUAUAUCUC | 0.17 |
| UAACAGGGGGCCACAGCAGAGGCGUUCACGCCGCAGCCCCUGUCAGAUUCCGGCGAAUCUGCGAAUUCUGCUGUAUAUCUC | 0.29 |
| UAACAGGGGGCCACAGCAGAGGCGUUCACGCCGCAGCCCCUGUCAGAUUCUGGUGAACCUGCGUAUUCUGCUGUAUAUCUC | 0.07 |
| UAACAGGGGGCCACAGCAGAGGCGUUCACGCCGCAGCCCCUGUCAGAUUCUGGUGAAUCAGCGAAUUCUGCUGUAUAUCUU | 0.03 |
| UAACAGGGGGCCACAGCAGAGGCGUUCACGCCGCAGCCCCUGUCAGAUUCUGGUGAAUCUGCGAAUUCUGCCGUAUAUCUC | 0.16 |

| Variant | self-cleavage |
| --- | --- |
| UAACAGGGGGCCACAGCAGAGGCGUUCACGCCGCAGCCCCUGUCAGAUUCUGGUGAAUCUGCGAAUUCUGCUGCAUAUCUC | 0.32 |
| UAACAGGGGGCCACAGCAGAGGCGUUCACGCCGCAGCCCCUGUCAGAUUCUGGUGAAUCUGCGAAUUCUGCUGUAUAUCCC | 0.38 |
| UAACAGGGGGCCACAGCAGAGGCGUUCACGGCGCAGCCCCUGUCAGAUUCUAGUGAAUCAGCGAAUUCUGCUGUAUAUCUC | 0.12 |
| UAACAGGGGGCCACAGCAGAGGCGUUCACGGCGCAGCCCCUGUCAGAUACUAGUGGAUCUGCGAAUUCUGCUGUAUAUCUC | 0.11 |
| UAACAGGGGGCCACAGCAGAGGCGUUCACGUCGCAGCCCCAGUCUGAUUCUGGUGAGUCUGCGAAUUCUGCUGUAUAUCUC | 0.18 |
| UAACAGGGGGCCACAGCAGAGGCGUUCACGUCGCAGCCCCAGUCUGAUUCUGGUGAAUCUGCGAAUUCCGCUGUAUAUCUC | 0.15 |
| UAACAGGGGGCCACAGCAGAGGCGUUCACGUCGCAGCCCCAGUCAGGUUCUGGUGAAUCUGCGAAUUCUGCUGUAUAUCUC | 0.32 |
| UAACAGGGGGCCACAGCAGAGGCGUUCACGUCGCAGCCCCAGUCAGAUUCUGGUGACUCUGCGGAUUCUGCUGUAUAUCUC | 0.15 |
| UAACAGGGGGCCACAGCAGAGGCGUUCACGUCGCAGCCCCAGUCAGAUUCUGGUGAAUCUGCGGAUUCUGCUGUAUAUCUC | 0.15 |
| UAACAGGGGGCCACAGCAGAGGCGUUCACGUCGCAGCCCCAGUCAGAUUCUGGUGAAUCUGCGAGUUCUGCUGUAUAUCUC | 0.3 |
| UAACAGGGGGCCACAGCAGAGGCGUUCACGUCGCAGCCCCAGUCAGAUUUUGGUGAAUCUGCGAAUUCUGCUGUAUAUCUC | 0.47 |
| UAACAGGGGGCCACAGCAGAGGCGUUCACGUCGCAGCCCCAGUCAGAUUCUGGUGAAUCUGCGAAUUCUGGUGUAUAUCUC | 0.1 |
| UAACAGGGGGCCACAGCAGAGGCGUUCACGUCGCAGCCCCAGCCUGAUUCUGGUGAAUCUGCGGAUUCAGCUGUAUAUCUC | 0.16 |
| UAACAGGGGGCCACAGCAGAGGCGUUCACGUCGCAGCCCCAGUCAGACUCUGGUGAAUCUGCGAAUUCUGCUGUAUAUCUC | 0.33 |
| UAACAGGGGGCCACAGCAGAGGCGUUCACGUCGCAGCCCCAGUCAGAUUCUGGUGAAUCCGCGAAUUCUGCUGUAUAUCUC | 0.22 |
| UAACAGGGGGCCACAGCAGAGGCGUUCACGUCGCAGCCCCAGUCAGAUUCUGGUGAAUCCGCGAAUUCUGCUGUGUAUCUC | 0.05 |
| UAACAGGGGGCCACAGCAGAGGCGUUCACGUCGCAGCCCCAGUCAGAUUCUGGUGAAUCUGCGAAAUCUGCUGUAUAUCCC | 0.09 |

From the RNAGym collection of RNA variant scans (doi:10.1093/nar/gkz1192)
